Laboratory results reported in PubChem BioAssay AID686979 (National Center for Advancing Translational Sciences (NCATS), 2013).
“And” between values parts separate entries of the source, which are not always exact repeats. Identical values can stand only once. Out of some 420,000 compounds screened, about 50,000 (12%) were called active. This list was built around the results that the source calls inconclusive (neither active nor inactive); the mix of calls is not that of the screen. The call rests on the fitted dose curve; in most records, active means well fitted inhibition curve with a large enough effect; inconclusive means small, poorly fitted or top-dose-only effect; inactive means flat fitted curve, though single readings scatter. A potency beside an inconclusive call is a rough fit, not a confirmed value.
On the % scale 0 is the no-effect control and ±100 the full control effect; potency means the concentration at half of the fitted maximal effect; tags describe the fitted curve by direction and shape.

Assay: qHTS for Inhibitors of human tyrosyl-DNA phosphodiesterase 1 (TDP1): qHTS in cells in presence of CPT; further: nearly all actives have a fitted effect of over 55% in size
Conditions: chicken DT40 Tdp1-/-;hTDP1 cells + 20 nM CPT, ATP luminescence, 48 h; activity change, negative = growth inhibition: at 46.2 µM (top of the series) unless noted
Summary of the method: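 Chicken DT40 Tdp1-/- cells stably complemented with human TDP1 were seeded at 400 cells/well in medium containing 20 nM camptothecin, exposed to pin-transferred compounds, and grown at 37 °C for at least 48 hr. Viability was read as ATP luminescence.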
In the case of `Cc1ccccc1-c1noc(-c2ccccc2C(=O)NCc2ccco2)n1`, the Potency is reported as inconclusive: 18.4 µM [inhibitor, single point]. With `CC(C)CC(c1nnnn1Cc1cccs1)N1CCN(c2nc3ccccc3s2)CC1` (stereo not drawn) the Potency was inconclusive: 29.1 µM [inhibitor, single point]. For `CN1CCN(C(CNS(=O)(=O)c2ccc(Br)cc2)c2ccc3c(c2)OCO3)CC1` (stereo not drawn), the Potency was “inactive”. In the case of `CCCCCCOC(=O)c1ccc(NC(=O)c2cc(OC)c(OC)c(OC)c2Br)cc1`, the Potency is reported as inconclusive: 18.4 µM [inhibitor, single point]. With `COc1ccc(S(=O)(=O)c2nnn(-c3ccc(C(C)C)cc3)c2C)cc1` the Potency was active: 14.6 µM. For `CCC1(CC)Cc2ccccc2C(=O)N1`, the Potency was “inactive”. With `CCOC(=O)C1CCCN(S(=O)(=O)c2ccc(Br)s2)C1` (stereo not drawn) the Potency was inconclusive: 29.1 µM [inhibitor, single point]. For `Cc1c(Cl)cccc1Nc1nn2c(=O)c3ccc(C(=O)NCCC4=CCCCC4)cc3nc2s1`, the Potency was inconclusive: 3.26 µM [inhibitor, partial curve, poor fit]. In the case of `COC(=O)Nc1ccc(S(=O)(=O)Nc2ccc(O)cc2)cc1`, the Potency is reported as inconclusive: 10.3 µM [inhibitor, partial curve]. With `Nc1nc(-c2ccccc2)[nH]c(=O)c1N` the Potency was active: 25.9 µM. With `CCOc1ccccc1N(CC(=O)Nc1ccc(S(=O)(=O)N2CCOCC2)cc1)S(=O)(=O)c1ccc(Cl)cc1` the activity change, negative = growth inhibition was inconclusive: -34.7% [inhibitor]. For `COc1ccc(CCNC(=O)Cc2c(C)c3cc4c(C)coc4cc3oc2=O)cc1OC`, the Potency was “inactive”. For `CCN(c1ccccc1)S(=O)(=O)c1ccc(Cl)c(NC(=O)CSc2ncn[nH]2)c1`, the Potency was inconclusive: 18.4 µM [inhibitor, single point]. With `O=C(Cn1cnc([N+](=O)[O-])c1)NCCc1ccccc1` the Potency was inconclusive: 0.0065 µM [inhibitor, full curve, poor fit]. For `CCN(C[C@H]1N[C@@](CC)(C(=O)OC)[C@H]2C(=O)N(Cc3ccccc3)C(=O)[C@@H]12)C(=O)c1ccccc1`, the Potency was inconclusive: 29.1 µM [inhibitor, single point]. With `CCOc1ccc(C2C(=O)N(C3CCCCC3)CC(=O)N2CCc2ccccc2)cc1OC` (stereo not drawn) the Potency was inconclusive: 10.3 µM [inhibitor, partial curve]. In the case of `N=C1C(c2nc3ccccc3s2)=C(O)CN1Cc1ccccc1`, the Potency is reported as active: 7.31 µM. For `NC(=O)CC(NC(=O)Cc1ccc(Cl)cc1)c1ccc(NCC2CC2)c([N+](=O)[O-])c1` (stereo not drawn), the Potency was inconclusive: 14.6 µM [inhibitor, partial curve, poor fit]. For `O=C1Nc2ccc(Br)cc2C12NNc1ccccc1O2` (stereo not drawn), the Potency was inconclusive: 23.1 µM [inhibitor, single point]. With `Oc1ccc(-c2nc3ccc(Cl)cn3c2Nc2ccc3c(c2)OCO3)cc1` the Potency was inconclusive: 8.2 µM [inhibitor, partial curve]. For `CCOC(=O)C1=CCN(S(=O)(=O)c2ccc(C)cc2)C1c1cccc(F)c1` (stereo not drawn), the Potency was inconclusive: 29.1 µM [inhibitor, single point]. For `O=C(NCCc1c[nH]c2ccccc12)c1cc([N+](=O)[O-])cc([N+](=O)[O-])c1`, the Potency was inconclusive: 8.2 µM [inhibitor, partial curve]. For `N#CC1=C(N)Oc2cc(N)ccc2C1C1CCCCC1` (stereo not drawn), the Potency was inconclusive: 25.9 µM [inhibitor, single point]. In the case of `Nc1nc2n(n1)C(c1ccc(Cl)cc1)CC(c1ccc(F)cc1)N2` (stereo not drawn), the Potency is reported as inconclusive: 16.4 µM [inhibitor, partial curve]. With `CCC(CC)c1nnc(NC(=O)c2cc(-c3ccccc3)nc3ccccc23)s1` the Potency was “inactive”. For `CCC1Sc2ccccc2N(CC(=O)NCc2ccc3c(c2)OCO3)C1=O` (stereo not drawn), the Potency was inconclusive: 20.6 µM [inhibitor, partial curve, poor fit]. For `O=C(Cc1c(F)cccc1Cl)N1CCN(S(=O)(=O)c2cccc(F)c2)CC1`, the Potency was “inactive”. With `Cc1noc(C)c1-c1nccc(NCc2cccs2)n1` the Potency was inconclusive: 20.6 µM [inhibitor, single point]. For `FC(F)(F)C(F)(F)C(F)(F)c1nnc2ccc(N3CCOCC3)nn12`, the activity change, negative = growth inhibition was inconclusive: -34.9% [inhibitor]. For `COC(=O)[C@@]12CCCCN1[C@H](c1ccc(-c3ccc(C(C)=O)cc3)cc1)[C@@H]1C(=O)N(C)C(=O)[C@@H]12`, the Potency was active: 14.6 µM. With `CCOC(=O)c1c(NC(=O)C(C)OC(=O)C2=COCCO2)sc2c1CCCC2` (stereo not drawn) the Potency was inconclusive: 20.6 µM [inhibitor, single point]. With `Cc1cccc(C(=O)N[C@@H]2c3ccccc3C[C@@H]2O)n1` the Potency was “inactive”. For `O=C1C(=Cc2cccn2-c2ccc(O)cc2)C(=O)c2ccccc21`, the Potency was inconclusive: 29.1 µM [inhibitor, single point]. With `O=C(N[C@@H]1C/C=C\C[C@@H](CC(=O)N(CCO)Cc2ccccc2)C(=O)N[C@H](Cc2ccccc2)COC1=O)OCC1c2ccccc2-c2ccccc21` the Potency was active: 8.2 µM. For `COc1ccc2c(c1)N(C)/C(=C/c1cccc[n+]1C)S2`, the Potency was active: 0.259 µM. In the case of `Cc1ccc(NC(=O)C2CCN(S(=O)(=O)c3ccc4c(c3)C(C)(C)C(=O)N4C)CC2)c(C)c1`, the Potency is reported as inconclusive: 20.6 µM [inhibitor, partial curve]. For `O=C1CC(=O)Nc2cc(S(=O)(=O)N3CCOc4ccc(Cl)cc43)ccc2N1`, the Potency was inconclusive: 29.1 µM [inhibitor, single point]. With `CCOC(=O)c1c(C)nc(C)c(C(=O)OCC)c1-c1ccco1` the Potency was “inactive”. With `Nc1c(C(=O)CSc2nnc(-c3ccccc3)o2)c(=O)[nH]c(=O)n1C1CC1` the activity change, negative = growth inhibition was inconclusive: -20.6% [inhibitor]. For `COc1cc2cc(CCOC(=O)c3ccco3)oc(=O)c2cc1OC`, the Potency was “inactive”. In the case of `Oc1ccc(-c2nc3ccc4ccccc4c3c3c2CCC3)cc1O`, the Potency is reported as inconclusive: 29.1 µM [inhibitor, partial curve, poor fit]. In the case of `NS(=O)(=O)c1ccc2nc(NC(=O)Nc3ccccc3F)sc2c1`, the Potency is reported as inconclusive: 4.11 µM [inhibitor, full curve, poor fit]. In the case of `O=C(NN=Cc1c(F)c(F)c(F)c(F)c1F)c1ccc(NS(=O)(=O)c2cccs2)cc1`, the Potency is reported as inconclusive: 18.4 µM [inhibitor, single point]. In the case of `O=C(NCc1ccc(Cl)cc1)C1CCN(S(=O)(=O)c2ccccc2)CC1`, the Potency is reported as inconclusive: 4.11 µM [inhibitor, single point] and inconclusive: 29.1 µM [inhibitor, single point]. With `COc1ccc(C2CC(=O)c3c(O)cc(O)cc3O2)cc1O` (stereo not drawn) the Potency was “inactive”. In the case of `OCCCCNCc1cc(Br)ccc1OCc1ccccc1F`, the Potency is reported as inconclusive: 14.6 µM [inhibitor, partial curve, poor fit]. In the case of `COc1ccc(N(C(=O)c2ccccc2)S(=O)(=O)c2ccc3c(c2)n(C)c(=O)n3C)cc1`, the Potency is reported as inconclusive: 23.1 µM [inhibitor, single point]. In the case of `Cc1c(Cc2ccccc2)c(=O)oc2cc(OC(C)C(=O)NCC3CCC(C(=O)O)CC3)c(Cl)cc12` (stereo not drawn), the Potency is reported as “inactive”. For `COc1ccc(OC)c(Nc2cc(C)nc3ccc(C)cc23)c1`, the Potency was active: 4.61 µM. With `O=C(NC(=S)Nc1ccccc1Cl)c1cncc(Br)c1` the Potency was “inactive”. For `O=C(NC1CC(=O)N(c2ccc(F)cc2)C1)c1ccc2c(c1)OCO2` (stereo not drawn), the Potency was “inactive”. For `CC1CCCCN1c1ncnc2ccccc12` (stereo not drawn), the Potency was active: 23.1 µM. In the case of `COc1ccccc1CNC(=O)CCn1cnc2ccccc2c1=O`, the Potency is reported as “inactive”. In the case of `CCC(CC)C(=O)N(C)c1c(C)nc2c(OCCOc3ccc(F)cc3)cccn12`, the Potency is reported as active: 20.6 µM. With `Cc1ccc(NS(=O)(=O)c2ccc(NC(=O)c3cccs3)cc2)cc1` the Potency was inconclusive: 29.1 µM [inhibitor, single point]. With `c1ccc2c(c1)nc(NCC1CCCO1)c1nnnn12` (stereo not drawn) the Potency was “inactive”. For `CC(=O)N1CCOc2ccc(S(=O)(=O)NCCc3ccc(S(N)(=O)=O)cc3)cc21`, the Potency was inconclusive: 23.1 µM [inhibitor, single point]. With `CC(C)c1ccc(C(=O)Nc2nnc(S(=O)(=O)N3CCOCC3)s2)cc1` the Potency was inconclusive: 23.1 µM [inhibitor, partial curve]. In the case of `O=C1CCc2cc(S(=O)(=O)NCc3ccc(F)cc3)cc3c2N1CCC3`, the Potency is reported as “inactive”. With `CN(CC(=O)Nc1ccc(Cl)c(C(F)(F)F)c1)C(=O)C1CC(=O)N(C2CCCC2)C1` (stereo not drawn) the Potency was inconclusive: 23.1 µM [inhibitor, single point]. For `O=C(CSc1nc2cc(S(=O)(=O)N3CCOCC3)ccc2o1)Nc1c(F)cccc1F`, the Potency was active: 20.6 µM. In the case of `O=C(c1ccc2c(c1)N(Cc1cccc(Cl)c1)C(=O)c1ccccc1S2=O)N1CCN(c2cccc(C(F)(F)F)c2)CC1` (stereo not drawn), the Potency is reported as active: 16.4 µM. With `Cc1cnc(C(=O)Nc2nnc(C(C)C)s2)cn1` the activity change, negative = growth inhibition was inconclusive: -34.5% [inhibitor]. With `COC(=O)c1cc(S(=O)(=O)NCCN2CCN(c3ccccc3F)CC2)c[nH]1` the Potency was inconclusive: 29.1 µM [inhibitor, single point]. For `COc1ccc(/C=C/C(=O)Nc2cc(C)nn2-c2nc3ccccc3[nH]2)cc1`, the Potency was inconclusive: 18.4 µM [inhibitor, single point]. In the case of `O=c1cc(N2CCCCC2)c(-c2ccccc2)nn1Cc1c(Cl)cccc1Cl`, the Potency is reported as inconclusive: 29.1 µM [inhibitor, single point]. For `COc1ccc(CCNS(=O)(=O)c2cnc(Cl)c(Br)c2)cc1OC`, the Potency was “inactive”. With `CCOCCCN(C)C1CCN(S(=O)(=O)c2csc(C(N)=O)c2)CC1` the Potency was “inactive”.
